Laboratory results reported in PubChem BioAssay AID1345083 (National Center for Advancing Translational Sciences (NCATS), 2018).
Screen size: about 94,000 compounds; about 6,200 (6.6%) were called active. The shares of active, inactive and inconclusive entries below differ from those in the screen. Calls come from the whole dose curve; as a rule, active = well fitted inhibition curve with a large enough effect; inconclusive = small, poorly fitted or top-dose-only effect; inactive = flat fitted curve, though single readings scatter. Potencies of inconclusive entries are doubtful fits and often do not repeat.

Experiment: Cytotoxic Profiling in HEK 293 Cell Line of Diverse Libraries Using Quantitative High-Throughput Screening; note: nearly all actives have a fitted effect of over 60% in size
Settings: HEK 293 viability, ATP luminescence (CellTiter-Glo), 48-72 h; activity change, negative = cytotoxicity: at 115 µM (top of the series) unless noted; series mostly up to 115 µM
Method in brief: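 Cells seeded first (HEK 293, 250 cells/well), then compound added by pintool. Incubation ran 48 or 72 hr at 37 degree Celsius. CellTiter-Glo was added and luminescence imaged after 10 min at room temperature.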
% is set by controls: 0 for no effect and ±100 for the full control effect; potency is the fitted concentration of half-maximal effect; tags give direction and shape of the fitted curve.

SMILES	Potency	activity change, negative = cytotoxicity	outcome
OC(c1nc(Nc2ccc(N3CCOCC3)cc2)n[nH]1)C1CC1 (configuration not stated)	inconclusive: 126 µM [inhibitor, single point]		
Cc1ccccc1C(=O)NC1CCCN(CCn2nc3n(c2=O)CCCC3)C1 (configuration not stated)		inactive: -4.17%	
O=C(COc1ccccc1)Nc1cnc(-c2cccc(Cl)c2)nc1	inconclusive: 39.8 µM [inhibitor, full curve, poor fit]		
O=C(c1cn[nH]c1-c1ccccc1)N1CC2CC(C1)[C@H]1CCCC(=O)N1C2 (some centres not stated)		inactive: 1.07%	
Cc1noc(C2CC3(CCN(C(=O)c4cccs4)CC3)CN2C)n1 (configuration not stated)		inactive: -11.7%	
CC(C)n1cnnc1CN(C)c1nc(N)nc2nc[nH]c12		inactive: -7.1%	
COc1cccc(OCc2nc3c(n2Cc2ccccc2)C(=O)N(C)CCN3)c1	inconclusive: 79.4 µM [inhibitor, partial curve]		
Cc1cc(C)n2ncc(C(=O)N3CCC(c4[nH]ncc4-c4ccccc4)CC3)c2n1	inconclusive: 56.2 µM [inhibitor, partial curve, poor fit]		
O=C1NC(=NC2CCCCC2)C2(CCN(Cc3ccsc3)C2)N1c1cccnc1 (configuration not stated)		inactive: 0.129%	
CCNC(=O)[C@@H]1C[C@H](NC(=O)Cc2cc(C)ccc2C)CN1C1CCCC1		inactive: -19.4%	
O=C(CCc1ccco1)N1CCC(C2CCN(Cc3cccc(F)c3F)CC2)C1 (configuration not stated)	inconclusive: 28.2 µM [inhibitor, full curve, poor fit]		
CC(=O)N1CC[C@H](c2nc3ccc(C(F)(F)F)cc3[nH]2)C1		inactive: -9.48% [at 172 µM]	
CCOC(=O)[C@@H]1[C@@H](O)C(=O)N(Cc2ccccc2)C12CCN(C(=O)c1ccc(C(C)(C)C)cc1)CC2	inconclusive: 44.7 µM [inhibitor, partial curve, poor fit]		
CC(C)(C)c1nnc([C@H]2CCN(C(=O)CCC(=O)O)C2)o1			inactive [at 172 µM]
COCCN(CCOC)CC[C@@H]1CC[C@H](O)[C@@H](C(=O)Nc2ccccc2)O1			inactive [at 172 µM]
CN1C[C@H](O)[C@]2(CCN(Cc3ccc(OC(F)(F)F)cc3)C2)S1(=O)=O	inconclusive: 56.2 µM [inhibitor, partial curve, poor fit]		
Cc1ccc(C2Cn3nnc(C(=O)N4CCN(C(=O)c5cccc(C)c5)CC4)c3CO2)cc1 (configuration not stated)	active: 44.7 µM		
O=C(C1CCCCN1Cc1ccc(-c2cccs2)cc1)N1CCCC1 (configuration not stated)	inconclusive: 79.4 µM [inhibitor, partial curve, poor fit]		
COC(=O)c1ccc2nc(C[C@@H]3C[C@@H](C(C)C)[C@H](CNC(=O)C4CCCCC4)C=C3C)[nH]c2c1	inconclusive: 28.2 µM [inhibitor, full curve]		
Nc1nc(C2CC(N)C2)cc(N2CC(c3nc4ccccc4[nH]3)C2)n1 (configuration not stated)		inactive: -13%	
Cc1ccsc1-c1nc(CN2CCC(CCn3cccn3)CC2)c(C)o1	inconclusive: 56.2 µM [inhibitor, partial curve, poor fit]		

SMILES	Potency	activity change, negative = cytotoxicity	outcome
Cc1ccc(-c2nnc([C@H]3CCN(c4ncccn4)C3)o2)cc1	inconclusive: 126 µM [inhibitor, single point]		
COc1ccccc1CCC(=O)N1CCN(c2cc(-c3ccc(Cl)cc3)[nH]n2)CC1	inconclusive: 50.1 µM [inhibitor, partial curve, poor fit]		
CCN(C(=O)c1cccc(F)c1F)[C@@H]1CCN(c2ncccc2C#N)C[C@H]1O		inactive: -25.1%	
COc1cc(C(=O)NC2CCN(c3cc(-c4ccccc4)[nH]n3)CC2)cc(OC)c1OC	inconclusive: 39.8 µM [inhibitor, full curve, poor fit]		
O=C(C1CCC1)N1CCC2(CC1)CC(N(Cc1ccccc1)C1CC1)CCO2 (configuration not stated)	inconclusive: 39.8 µM [inhibitor, partial curve, poor fit]		
Cc1ccc(C(=O)N2CCCC(c3nc(-c4cccnc4)no3)CCNC(=O)CC2)cn1 (configuration not stated)		inactive: -19.5%	
CCOC(=O)C1(Cc2ccccc2F)CCCN(C(=O)c2ccc(OC)nc2OC)C1 (configuration not stated)	inconclusive: 56.2 µM [inhibitor, partial curve, poor fit]		
O=C(NCCOc1ccccc1)c1cnc2n1CCN(Cc1ccc(F)cc1)CC2	inconclusive: 100 µM [inhibitor, partial curve]		
COc1ccccc1-c1ccc(CN2CCC(NC(=O)Cc3cccc(Cl)c3)C2)cc1 (configuration not stated)	inconclusive: 20 µM [inhibitor, full curve, poor fit]		
Fc1cccc(Cc2noc(-c3nc(-c4ccccc4)no3)n2)c1	inconclusive: 79.4 µM [inhibitor, single point]		
COc1ccc(OC)c(CN2CCC3(CC2)OC(=O)N(Cc2ccccc2C#N)C3(C)c2ccccc2)c1 (configuration not stated)	inconclusive: 31.6 µM [inhibitor, full curve]		
COc1ccc(-c2noc([C@@H]3C[C@H](NS(=O)(=O)c4ccc(F)cc4)CN3C)n2)cc1	inconclusive: 70.8 µM [inhibitor, partial curve]		
NC1CCCCN(C(=O)CCN2CCc3ccccc32)C1 (configuration not stated)	inconclusive: 89.1 µM [inhibitor, partial curve, poor fit]		
O=C1Nc2ccccc2NC12CCN(Cc1c(F)cccc1Cl)CC2	inconclusive: 79.4 µM [inhibitor, partial curve, poor fit]		
COCCN1C(=O)[C@@H]2C[C@@H](CN2Cc2cnc3ccccc3c2)Oc2ccccc21	inconclusive: 112 µM [inhibitor, single point]		
COc1ccc(-c2cc(C(=O)N3CCOCC3)c3c(C)nn(-c4ccccc4)c3n2)cc1	inconclusive: 50.1 µM [inhibitor, partial curve, poor fit]		
Cc1cn2cc(C(=O)NCc3cn4c(n3)SCC4)ccc2n1			inactive
Cc1ccc(-c2ncc(C(=O)Nc3ccccc3C)c(-c3ccncc3)n2)cc1	inconclusive: 50.1 µM [inhibitor, partial curve, poor fit]		
COc1ccc(-c2nnc3n2CCN(C(=O)Cc2ccccn2)C3)cc1		inactive: -19.7%	
COc1ccc(-c2ccc(C(=O)NCCCc3ccccc3)cc2)nn1		inactive: -22.7% [at 172 µM]	
COc1ccc(CC(=O)N2[C@@H]3CC[C@H]2CC(NC(=O)c2ccncc2)C3)cc1OC (some centres not stated)		inactive: -4.86%	
